Measured values taken from article PMC3197643 (2011).
Read-outs that look alike come from different tables or passages of the source. These are yes or no findings as the source states them, for the method shown. For part of these data: Binding seen in cells or lysates may run through a third protein. Some binding calls cover weakened binding; strength is not graded here. Tags and fused reporters may be left off the sequences shown. Each block holds one molecule with its values, some of them ahead of it.

How the values were obtained:
[1] = biological target: T1, OX2R CTD Δ433–460, OX2R CTD lacking the extra 28 a.a. compared to OX1R CTD, fused to GAL4 DNA binding domain (mouse) (UniProt P58308); assay: two-hybrid; co-transformation of pGBKT7-OX1R CTD or -OX2R CTD (wild-type or mutants) with pGADT7-Dynlt1 or -Dynlt3 (wild-type or mutants); HIS3 test in AH109 with 1 to 25 mM 3-AT; ONPG liquid β-galactosidase assay in Y187
T1 sequence: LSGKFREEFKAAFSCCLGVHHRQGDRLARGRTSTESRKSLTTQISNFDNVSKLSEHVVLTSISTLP

[2] = biological target: T2, OX2R CTD, carboxy-terminal domain of OX2R (a.a. 367–460), fused to GAL4 DNA binding domain (mouse) (UniProt P58308); assay: as above
T2 sequence: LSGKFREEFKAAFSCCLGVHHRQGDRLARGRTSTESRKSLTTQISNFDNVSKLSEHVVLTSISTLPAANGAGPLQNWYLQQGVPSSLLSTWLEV

[3] = biological target: T3, OX1R CTD Δ397–416, OX1R CTD lacking the last 20 a.a., fused to GAL4 DNA binding domain (mouse) (UniProt P58307); assay: as above
T3 sequence: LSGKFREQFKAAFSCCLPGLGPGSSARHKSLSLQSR

[4] = biological target: T4, OX1R CTD Δ407–416, OX1R CTD lacking the last 10 a.a., fused to GAL4 DNA binding domain (mouse) (UniProt P58307); assay: as above
T4 sequence: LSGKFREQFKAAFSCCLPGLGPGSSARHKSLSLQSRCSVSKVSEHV

[5] = biological target: T5, OX1R CTD T409, 412A, OX1R CTD with T409 and T412 mutated into alanine residues, fused to GAL4 DNA binding domain (mouse) (UniProt P58307); assay: as above
T5 sequence: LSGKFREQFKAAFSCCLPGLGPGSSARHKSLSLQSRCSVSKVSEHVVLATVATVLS

[6] = biological target: T6, Full-length OX1R-EGFP fusion protein (carboxy-terminal tagged OX1R-GFP) (mouse) (UniProt P58307); assay: co-IP; HEK293 cells transfected with pCS2-Myc-Dynlt1 and pEGFP-N1-OX1R; whole-cell lysates, IP with anti-GFP, IB with anti-Myc
T6 sequence: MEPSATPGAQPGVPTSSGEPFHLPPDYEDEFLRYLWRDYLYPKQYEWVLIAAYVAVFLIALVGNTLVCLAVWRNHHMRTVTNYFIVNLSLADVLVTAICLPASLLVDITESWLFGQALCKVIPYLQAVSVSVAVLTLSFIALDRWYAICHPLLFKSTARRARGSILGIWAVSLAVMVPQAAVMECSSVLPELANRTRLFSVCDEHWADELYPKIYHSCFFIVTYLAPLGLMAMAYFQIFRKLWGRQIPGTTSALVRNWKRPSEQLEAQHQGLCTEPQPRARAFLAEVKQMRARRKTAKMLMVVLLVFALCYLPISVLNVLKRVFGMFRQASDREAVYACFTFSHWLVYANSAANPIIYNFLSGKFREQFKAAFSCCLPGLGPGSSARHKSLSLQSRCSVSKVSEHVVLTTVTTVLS

[7] = biological target: T7, V5-tagged full-length OX1R (mouse) (UniProt P58307); assay: co-IP; HEK293 cells transfected; whole-cell lysates in IP buffer (1% NP-40, 150 mM NaCl, 10 mM sodium phosphate), IP with anti-V5 and protein G-Sepharose at 4°C, IB with anti-Myc; in Fig. 5A cells stimulated with OX-A or vehicle for 30 min
T7 sequence: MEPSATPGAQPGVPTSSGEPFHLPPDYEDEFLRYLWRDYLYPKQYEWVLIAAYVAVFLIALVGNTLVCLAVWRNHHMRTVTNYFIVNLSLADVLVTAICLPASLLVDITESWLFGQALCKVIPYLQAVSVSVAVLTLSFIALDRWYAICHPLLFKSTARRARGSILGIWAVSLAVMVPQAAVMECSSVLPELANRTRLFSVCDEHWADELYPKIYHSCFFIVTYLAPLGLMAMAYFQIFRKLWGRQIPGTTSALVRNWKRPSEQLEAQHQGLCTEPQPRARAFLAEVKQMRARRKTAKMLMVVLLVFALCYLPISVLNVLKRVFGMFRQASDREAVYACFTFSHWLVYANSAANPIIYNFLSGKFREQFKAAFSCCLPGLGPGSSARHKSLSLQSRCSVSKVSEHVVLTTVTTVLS

[8] = biological target: T8, V5-OX1R mutant T409A, T412A (mouse) (UniProt P58307); assay: as above
T8 sequence: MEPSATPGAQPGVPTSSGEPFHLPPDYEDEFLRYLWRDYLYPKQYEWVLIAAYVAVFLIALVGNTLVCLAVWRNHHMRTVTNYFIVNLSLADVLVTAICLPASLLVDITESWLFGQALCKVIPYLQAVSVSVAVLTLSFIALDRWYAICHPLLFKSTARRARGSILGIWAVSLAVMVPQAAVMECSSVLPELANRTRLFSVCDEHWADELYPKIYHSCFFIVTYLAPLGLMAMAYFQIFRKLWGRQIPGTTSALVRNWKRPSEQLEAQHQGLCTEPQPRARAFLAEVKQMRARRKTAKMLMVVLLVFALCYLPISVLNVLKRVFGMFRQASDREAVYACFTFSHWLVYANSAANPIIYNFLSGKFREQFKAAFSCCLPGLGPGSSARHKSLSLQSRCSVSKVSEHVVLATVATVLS

[9] = biological target: T9, V5-OX1R Δ364–416, V5-OX1R lacking its CTD (mouse) (UniProt P58307); assay: as above
T9 sequence: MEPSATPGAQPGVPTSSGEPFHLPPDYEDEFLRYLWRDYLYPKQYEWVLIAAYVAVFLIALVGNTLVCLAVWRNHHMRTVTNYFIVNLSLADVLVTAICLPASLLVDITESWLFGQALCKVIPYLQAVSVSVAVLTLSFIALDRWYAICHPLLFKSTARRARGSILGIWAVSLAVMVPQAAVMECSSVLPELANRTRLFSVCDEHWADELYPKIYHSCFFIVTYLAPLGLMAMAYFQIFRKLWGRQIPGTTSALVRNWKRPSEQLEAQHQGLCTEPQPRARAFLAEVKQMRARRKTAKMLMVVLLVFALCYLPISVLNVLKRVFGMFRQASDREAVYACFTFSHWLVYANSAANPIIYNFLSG

[10] = biological target: T10, V5-OX1R lacking the last 10 amino acids (Δ407–416) (mouse) (UniProt P58307); assay: as above
T10 sequence: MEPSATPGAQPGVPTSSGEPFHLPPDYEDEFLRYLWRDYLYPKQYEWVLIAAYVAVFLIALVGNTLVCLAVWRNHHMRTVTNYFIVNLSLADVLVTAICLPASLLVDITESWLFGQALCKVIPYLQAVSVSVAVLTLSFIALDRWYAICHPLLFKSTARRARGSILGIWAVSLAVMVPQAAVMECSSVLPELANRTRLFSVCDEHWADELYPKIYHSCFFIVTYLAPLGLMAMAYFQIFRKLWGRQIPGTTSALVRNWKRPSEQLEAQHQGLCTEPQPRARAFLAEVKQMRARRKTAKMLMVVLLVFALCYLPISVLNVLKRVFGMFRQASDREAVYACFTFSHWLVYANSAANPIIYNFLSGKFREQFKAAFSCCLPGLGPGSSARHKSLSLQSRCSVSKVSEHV

[11] = biological target: T2, OX2R CTD, carboxy-terminal domain of OX2R (a.a. 367–460), fused to GAL4 DNA binding domain (mouse); assay: two-hybrid; co-transformation of pGBKT7-OX1R CTD or -OX2R CTD (wild-type or mutants) with pGADT7-Dynlt1 or -Dynlt3 (wild-type or mutants); HIS3 test in AH109 with 1 to 25 mM 3-AT; ONPG liquid β-galactosidase assay in Y187; remark: listed apart in the source
[12] = biological target: T5, OX1R CTD T409, 412A, OX1R CTD with T409 and T412 mutated into alanine residues, fused to GAL4 DNA binding domain (mouse); assay: as above; remark: listed apart in the source

binding [1]: binds | binding [2]: binds weakly | binding [3]: no binding | binding [4]: binds weakly | binding [5]: binds
Molecule: Dynein light chain Tctex-type 1 (Dynlt1) fused to GAL4 activation domain (from UniProt P51807 1-113)

binding [2]: binds
Molecule: Dynlt1 Δ1–14, Dynlt1 lacking a.a. 1–14, fused to GAL4 activation domain (from UniProt P51807 15-113) (domain or fragment)

binding [6]: binds | binding [7]: binds | binding [8]: binds | binding [9]: no binding | binding [10]: no binding
Molecule: Myc-tagged Dynlt1 (from UniProt P51807 1-113)

binding [7]: binds
Molecule: Myc-tagged Dynlt1 lacking the amino-terminus (Δ1–14) (from UniProt P51807 15-113) (domain or fragment)

binding [7]: binds
Molecule: Myc-tagged Dynlt1 lacking the carboxy-terminus (Δ91–113) (from UniProt P51807 1-90) (domain or fragment)

binding [11]: no binding | binding [12]: binds weakly
B1: Dynein light chain Tctex-type 3 (Dynlt3) fused to GAL4 activation domain (protein, UniProt P56387 1-116)
chain: MEGYQRPCDEVGFNADEAHNIVKECVDGVLGGNDYNENNINQWTASIVEQSITHLVKLGKAYKYIVTCAVVQRSPYGFHTASSCFWDTTSDGTCTIRWENRTMNCIVNVFAVAIVL
